# Publication PMC4336329 (PLoS ONE, 2015)
# In all, about 310,000 compounds went through this assay and about 14,000 (4.5%) showed an effect of 50% or more. Effects have a minus sign here. The list shows a part of the results.
# Biological target: human ether-à-go-go-related gene (hERG) potassium channel (human, UniProt Q12809)
# Experiment: primary screen, population patch clamp on CHO cells stably expressing hERG
# Procedure: Briefly, Chinese hamster ovary (CHO) cells stably expressing the hERG channel were dislodged from tissue culture flasks and dispensed into PPC plates. […] During the recording, background leak currents were estimated by a 100 ms step to -80 mV from an initial holding potential of -70 mV and subtracted from the subsequent current measurement. The campaign was conducted in two phases using slight differences in recording protocol. In the first phase, the initial voltage pulse used a 100 ms step to -30 mV from a holding potential of -70 mV, a 2 s conditioning step to +25 mV, and a 2 s test step to -30 mV. During the second phase of the screen, the potential during the conditioning step was raised to +45 mV. In both phases of the campaign, a secondary voltage pulse was applied using the same parameters as the second phase initial pulse. The initial and secondary pulses were applied in the absence of compound, and upon application of 1 μM and 10 μM test concentrations. […]
# 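Note: peak tail current of the secondary pulse compared with the same well before compound.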
# Sequence of human ether-à-go-go-related gene (hERG) potassium channel (Q12809 whole entry, looked up): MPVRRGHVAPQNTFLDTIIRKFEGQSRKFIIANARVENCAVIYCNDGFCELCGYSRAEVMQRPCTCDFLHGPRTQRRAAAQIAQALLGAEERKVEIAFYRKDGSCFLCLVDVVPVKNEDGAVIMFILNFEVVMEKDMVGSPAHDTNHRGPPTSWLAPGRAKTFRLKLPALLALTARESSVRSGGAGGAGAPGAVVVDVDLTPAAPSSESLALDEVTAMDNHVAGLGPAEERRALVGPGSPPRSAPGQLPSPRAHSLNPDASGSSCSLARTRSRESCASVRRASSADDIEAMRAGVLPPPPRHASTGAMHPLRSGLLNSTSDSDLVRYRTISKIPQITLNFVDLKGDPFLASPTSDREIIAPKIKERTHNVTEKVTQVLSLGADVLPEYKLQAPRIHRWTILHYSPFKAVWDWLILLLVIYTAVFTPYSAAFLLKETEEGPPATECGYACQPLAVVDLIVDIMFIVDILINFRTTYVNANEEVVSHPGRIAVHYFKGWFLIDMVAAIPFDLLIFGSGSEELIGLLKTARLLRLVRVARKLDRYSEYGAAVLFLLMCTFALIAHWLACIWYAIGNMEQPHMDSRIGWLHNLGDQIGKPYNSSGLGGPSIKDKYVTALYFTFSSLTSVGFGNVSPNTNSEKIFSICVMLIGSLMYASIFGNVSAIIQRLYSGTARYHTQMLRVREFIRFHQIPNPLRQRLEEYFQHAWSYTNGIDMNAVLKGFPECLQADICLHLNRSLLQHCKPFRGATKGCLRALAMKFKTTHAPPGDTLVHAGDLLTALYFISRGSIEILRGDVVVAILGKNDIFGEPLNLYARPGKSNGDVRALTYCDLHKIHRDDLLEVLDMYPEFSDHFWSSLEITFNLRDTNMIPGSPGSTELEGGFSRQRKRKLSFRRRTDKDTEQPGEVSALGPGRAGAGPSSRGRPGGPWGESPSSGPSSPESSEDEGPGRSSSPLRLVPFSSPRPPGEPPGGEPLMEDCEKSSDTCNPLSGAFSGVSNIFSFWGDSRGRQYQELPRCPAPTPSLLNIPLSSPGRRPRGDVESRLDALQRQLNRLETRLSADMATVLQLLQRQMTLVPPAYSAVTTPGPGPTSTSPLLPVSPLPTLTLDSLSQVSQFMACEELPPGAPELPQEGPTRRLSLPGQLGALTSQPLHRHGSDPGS
row,Compound,"hERG current change (%, negative = inhibition) at 10uM [%]"
1,CC(C)c1ccc(/C=C2\SC(=O)N(CC(=O)NCCCn3ccnc3)C2=O)cc1,-76.9
2,Cc1nn(-c2ccccc2)c(OC(=O)c2cccs2)c1S(=O)(=O)c1ccccc1,-2.4
3,COc1ccc2c(c1)C1(Nc3ccccc3-c3nc4ccccc4n31)C(=O)N2C (centres unmarked),18.9
4,Cc1ccc(Cn2cc(SCC(N)=O)c3ccccc32)cc1,2.93
5,Cc1noc(NS(=O)(=O)c2ccc(NC(=O)C(Cl)(Cl)Cl)cc2)c1C,14
6,C=CCN=C1S/C(=C\c2ccc(Cl)cc2)C(=O)N1CC=C,-1.83
7,S=C(Nc1ccc(Br)cc1)N1CCN(c2ccccn2)CC1,16
8,COc1ccccc1CNC(=O)C1CCN(S(=O)(=O)N2CCCCC2)CC1,-10.1
9,COc1cc(/C=C2/SC(=S)NC2=O)ccc1OS(=O)(=O)c1ccc(C)cc1,39.8
10,Cn1c(=O)[nH]c(=O)c2c1nc(N1CCN(Cc3ccccc3)CC1)n2CCCc1ccccc1,-31.9
11,CCCCN1C2CCCC1CC(NC(=O)c1ccc(OC)c(OC)c1)C2 (centres unmarked),-47.6
12,O=C(O)CC/C(=N/NC(=O)c1cn(-c2ccccc2)nc1-c1ccccc1)C(=O)O,16.5
13,Cc1ccc(C2=NN(C(=O)C3CCCO3)C(c3ccco3)C2)cc1 (centres unmarked),-5.22
14,COc1ccc(Cl)cc1NC(=O)N1CCN(CCc2ccccc2)CC1,-10.5
15,COc1cccc2cc(C(=O)CS(=O)(=O)c3ccc(C)cc3)c(=O)oc12,-19.4
16,CC(=O)Nc1ccc(Nc2nc(-c3c(C)nc4ccccn34)cs2)cc1,18.4
17,CCCNC(=O)Cn1cnc2sc(C(=O)Nc3cc(OC)c(OC)c(OC)c3)c(C)c2c1=O,1.34
18,Cc1cccc2nc(CSc3nc4[nH]ncc4c(=O)n3-c3cccc(Cl)c3)cc(=O)n12,-23.3
19,CN(C)c1ccc(/C=N/O)cc1,19.2
20,Nc1nnc(-c2ccccc2F)s1,12.4
21,CCN(CC)CCN1C(=O)Cn2c(C)c(C)c3cccc1c32.Cl,-52.4
22,COC(=O)c1ccc(NC(=S)NN2CCCCC2c2cccnc2)cc1 (centres unmarked),-3.42
23,CCOc1ccc(S(=O)(=O)Nc2cc(F)ccc2F)c2cccnc12,2.18

row,Compound,"hERG current change (%, negative = inhibition) at 10uM [%]"
1,Cc1ccc(CCNC(=O)C2CCCN(C(=O)N(C)C)C2)cc1 (centres unmarked),8.01
2,CCOc1ccc(Nc2nc(Cc3nnc(SCC(=O)O)o3)cs2)cc1,-1.32
3,O=C(NCCN1CCOCC1)C1(C(F)(F)F)C/C(=C\Cc2ccccc2)CCCO1 (centres unmarked),7.34
4,Cc1ccc(C(=O)NNC(=O)CCOc2cccc(C)c2)cc1,1.74
5,CCSC1=C(C#N)C(c2ccccc2C)CC(=O)N1 (centres unmarked),4.05
6,Cc1c(NC(=O)C(C#N)=C2CCCCC2)c(=O)n(-c2ccccc2)n1C,7.58
7,CCOc1ccc(NC(=O)CN(C)C(=O)CSCc2c(C)noc2C)cc1OCC,-4.75
8,C=CCn1c(C)nnc1SCC(=O)c1[nH]c(C)c(C(C)=O)c1C,14.3
9,Cc1ccccc1NC(=O)C1C2CCCC1C2c1ccccc1 (centres unmarked),-4.56
10,CNC(=O)CSc1nnc(-c2ccco2)n1-c1ccccc1OC,-3.69
11,CC1(C)Cc2c(C#N)c(N)n(-c3ccccc3)c(=O)c2CO1,5.99
12,CCOC(=O)c1nnn(CC(=O)N2N=C(c3cc(C)ccc3C)CC2c2ccc(OC)cc2)c1C(=O)OCC (centres unmarked),-7.65
13,Fc1cc2nc(-c3ccncc3)[nH]c2cc1F,-6.12
14,Cc1cccc(-n2cnc(C(=O)O)c2)n1,11.1
15,Oc1ccc(C23CC4CC(CC(C4)C2)C3)cc1O,18.1
16,COc1c2ccoc2nc2c(OC)c(OC[C@@H](O)C(C)(C)O)ccc12,12.4
17,CCOc1ccc2nc(Cl)sc2c1,19.9
18,Cc1ccc(NC(=O)CCn2nc(C)cc2C)c(C)c1,2.6
19,CNC(=S)N/N=C/c1ccc(C(C)C)cc1,6.93
20,COc1cc(Cl)c(C)cc1NC(=O)CSCC#N,-9.08
21,O=C(CSc1nc2ccccc2nc1N1CCOCC1)Nc1ccccc1F,-4.19
22,c1ccc(CN2CCN(Cc3cn4cccnc4n3)CC2)cc1,3.97
23,CCOC(=O)N1CCN(C(=S)Nc2ccccc2C(C)C)CC1,6.71

row,Compound,"hERG current change (%, negative = inhibition) at 10uM [%]"
1,CCO[C@H]1OC(C(=O)N2CCCCCCC2)=C[C@@H](c2coc3ccccc3c2=O)[C@@H]1CCCO,-17.7
2,COc1ccc(NC(=O)c2cc([N+](=O)[O-])ccc2N2CCN(C)CC2)cc1,-43.4
3,CC(Oc1ccc(Cl)cc1Cl)C(=O)NNC(=O)[C@@H]1CCCC[C@@H]1C(=O)O (some centres unmarked),0.365
4,O=C(CSc1nnnn1C1CCCCC1)Nc1ccccc1F,7.22
5,NS(=O)(=O)c1ccc(NC(=O)CSc2nc3c(c(=O)[nH]2)CCCC3)cc1,3.76
6,CNc1ccccc1C(=O)OC(C)C(=O)Nc1ccc(Cl)cn1 (centres unmarked),-1.94
7,C=CCn1c(NCc2ccc(OC)cc2O)nc2ccccc21,-23.1
8,Fc1ccc(COc2ccccc2CNc2nn[nH]n2)cc1,15
9,CCc1ccc(N(CC(=O)NCCc2ccccc2)C(=O)CCC(=O)Nc2ccccn2)cc1,1.94
10,O=S(=O)(c1ccccc1C(F)(F)F)N1CCC(n2cnc3ccccc32)CC1,-60.5
11,CCOC(=O)c1ccc(N2CCN(c3ccccc3F)CC2)c(NC(=O)Nc2ccccc2)c1,9.31
12,CCOc1cc2nc(-c3ccc(OC)c(OC)c3)nc(N3CCOCC3)c2cc1OC,-15.5
13,COc1ccc(CNC(=O)CSc2nccn(-c3ccc(F)c(F)c3)c2=O)cc1,8.61
14,O=C(CCn1c2c(c3ccccc31)CCCC2)NNC(=O)c1ccc([N+](=O)[O-])cc1,-11.9
15,CCOc1ccccc1NC(=O)C1CCN(C(=O)Cc2ccccc2)CC1,-1.35
16,CCc1cc2c(=O)[nH]c(Cc3ccc(Cl)cc3)nc2s1,3.97
17,CC1CCc2nn(CC(=O)N3CCCCCC3)cc2C1 (centres unmarked),-8.53
18,C/C(CC(=O)NC12CC3CC(CC(C3)C1)C2)=N\NC(=O)c1ccc(F)cc1,-12.9
19,CC1(C)CC(=O)c2cn3ncnc3nc2C1,-2.31
20,COc1ccc(C(=O)OCC(=O)NCc2ccco2)cc1S(=O)(=O)N1CCN(c2cccc(Cl)c2)CC1,-7.83
21,O=C1NC2(CCCC2)C(=O)N1CC(=O)N(Cc1ccccc1)c1ccccc1,-4.37
22,COc1ccc(-c2[nH]ncc2CN2CCCN(C(=O)c3ccco3)CC2)cc1F,-55.2
23,Cc1csc(NC(=O)CCNC(=O)c2ccc([N+](=O)[O-])cc2)n1,-25.1

row,Compound,"hERG current change (%, negative = inhibition) at 10uM [%]"
1,COc1cc(/C=C/C(=O)OCC(=O)NC(=O)NC2CCCCC2)ccc1OC(F)F,5.67
2,O=[N+]([O-])c1ccccc1Nc1nc(-c2cccnc2)cs1,5.15
3,O=C(NCCCN1CCCCCC1)c1ccc(N2CCCC2=O)cc1,16.4
4,CCc1cccc(NC(=O)Cn2cc3c(n2)CCCC3)c1,1.1
5,O=C(CCCOc1ccc(Cl)cc1Cl)NCCc1nnc2ccccn12,-38.8
6,COC(=O)[C@@H]1C[C@H]2CC[C@H](O)C[C@H]2N1Cc1ccccc1OC(=O)c1cccs1,-8.84
7,Cc1[nH]c2ccccc2c1CCCO,10.7
8,CN(C)S(=O)(=O)c1cccc(NC(=S)NNC(=O)c2cc3ccccc3cc2O)c1,12.4
9,CCOc1ccccc1N(CC(=O)Nc1ccccc1C(=O)N1CCOCC1)S(C)(=O)=O,9.3
10,Fc1ccc(NC(=S)N2CCCc3ccccc32)cc1,-0.393
11,O=C(CSc1nnc(-c2ccncc2)n1Cc1ccccc1)Nc1nccs1,-12.5
12,O=C1Nc2ccccc2C12Nc1ccccc1-c1nc3ccccc3n12 (centres unmarked),-0.999
13,CC(C)CNS(=O)(=O)c1ccc(S(=O)(=O)N2CCCN(Cc3ccccc3)C2)cc1,2.46
14,Cc1cc(NC(=O)CN2CCCCC2C)nc2c1c(=O)oc1ccccc12 (centres unmarked),14.5
15,CN(c1ccc(OCC(=O)NCCc2ccccc2)cc1)S(=O)(=O)c1ccc(Cl)cc1,15.2
16,CCOc1cccc(/C=N/NC(=S)Nc2ccccc2[N+](=O)[O-])c1O,18.7
17,Cc1ccc(C)c(C(=O)O/N=C(\N)c2ccc(Br)cc2)c1,-2.61
18,COc1cccc(NC(=O)c2cnc(SC)nc2C)c1,-11.2
19,CCN1CCN(C(=S)c2ccc(OCC(=O)N3CCOCC3)cc2)CC1,17.5
20,Cc1cccc(CC(C)NC(=O)CCc2nnc(CCCCc3ccccc3)o2)n1 (centres unmarked),-6.97
